PubChem BioAssay AID2147 (National Center for Advancing Translational Sciences (NCATS), 2009)
Values joined by “and” are separate entries in the source; they are usually repeats but may differ in a detail not shown here. Equal entries are not always repeated. In all, about 230,000 compounds went through this assay and about 3,600 (1.6%) were called active. Inconclusive results, whose numbers are uncertain, are shown with a selection of clear calls. The call rests on the fitted dose curve; in most records, active means well fitted inhibition curve with a large enough effect (not every such curve was filed as active); inconclusive means small, poorly fitted or top-dose-only effect, or another doubt; inactive means no such curve, though single readings can be large or run the other way. A potency beside an inconclusive call is a rough fit, not a confirmed value.

biological target: Lysine-specific demethylase 4E (Homo sapiens) (UniProt B2RXH2); assay: qHTS Assay for Inhibitors of Human Jumonji Domain Containing 2E (JMJD2E); conditions: JMJD2E catalytic domain, FDH-coupled NADH fluorescence (FDH is formaldehyde dehydrogenase); series mostly up to 57.1 µM; activity change, negative = inhibition: at the top concentration
Text: Assay Provider: Structural Genomics Consortium [SGC] Screening Center PI: Austin, C.P. Screening Center: NIH Chemical Genomics Center [NCGC] The fine interplay among methylation states of several lysine residues on the tails of histone proteins is a major determinant of the transcriptional state of the associated DNA coding regions and is commonly referred to as the histone code. Histone lysine demethylases catalyze the removal of methyl groups from methylated lysine sidechains on histones H3 and H4, thus antagonizing the reactions catalyzed by histone lysine methyltransferases. […] In search for novel inhibitors of JMJD2E demethylase, a member of the largest set of histone demethylases belonging to the Fe(II) and 2-oxoglutarate oxygenase (2OG) superfamily, we performed a quantitative high-throughput screen (Inglese 2006) by using an assay which utilizes a trimethylated peptide substrate corresponding to a fragment of histone H3 (sequence ARKme3STGGK) with detection of the formaldehyde co-product in real time by a formaldehyde dehydrogenase (FDH) coupled reaction. FDH catalyzes oxidation of formaldehyde to formic acid with the concomitant reduction of the non-fluorescent beta-nicotinamide adenine dinucleotide hydrate (NAD+) cofactor to the fluorescent NADH co-product. References: Inglese, J., Auld, D., Jadhav, A., Johnson, R., Simeonov, A., Yasgar, A., Zheng, W. and Austin, C. Proc Natl Acad Sci USA 2006, 103, 11473-11478. N. R. Rose, S. S. Ng, J. Mecinovic, B. M. Lienard, S. H. Bello, Z. Sun, M. A. McDonough, U. Oppermann and C. J. Schofield, J Med Chem, 2008, 51, 7053-7056. Sakurai, M., Rose, N., Schultz, L., Quinn, A., Jadhav, A., Ng, S., Oppermann, U., Schofield, C.J. and Simeonov, A. Mol BioSystems 2009, in press. S. Michael, D. Auld, C. Klumpp, A. Jadhav, W. Zheng, N. Thorne, C. Austin, J. Inglese and A. Simeonov, Assay Drug Dev Technol, 2008, 6, 637-657.
Reagents and Controls: Ferrous ammonium sulfate, (+)-sodium L-ascorbate, beta-nicotinamide adenine dinucleotide hydrate (NAD+), Tween-20, formaldehyde dehydrogenase from P. putida (FDH), and disodium 2-oxoglutarate were from Sigma (St. Louis, MO). Black solid-bottom 384-well or 1,536-well assay plates were from Greiner Bio-One (Monroe, NC). Enzyme was supplied by Prof. Udo Oppermann, SGC-Oxford. The catalytic domain of human JMJD2E (residues 1-337) was produced as an N-terminally His6-tagged protein in E. coli, and purified by Ni-affinity chromatography and size-exclusion chromatography, and stored in HEPES 50 mM/ NaCl 500 mM pH 7.5, as reported in Rose 2008. The trimethylated histone peptide substrate ARK(me3)STGGK was synthesized and HPLC-purified by the Tufts University Core Facility (Boston, MA). Substrate solution (Sakurai 2009) contained 50 uM ARK(me3)STGGK, 0.00025 U/uL FDH, 50 uM 2-oxoglutarate, 250 uM NAD+, 1 mM ascorbate, and 10 uM ferrous ammonium sulfate. Controls and plate map: Buffer (150 mM HEPES pH 7.5 containing 0.01% Tween-20) in columns 3 and 4 as negative control (no enzyme) and 100 nM JMJD2E final concentration in columns 1,2, and 5-48. Assay Steps: Enzyme and buffer solutions (3 uL) were dispensed into a 1,536-well Greiner black solid-bottom assay plate. The library compounds (23 nL) were transferred using a Kalypsys pintool equipped with 1,536-pin array. The plate was incubated at room temperature (15 min), and then a 1 uL aliquot of substrate solution was added to initiate the reaction. The plate was transferred to ViewLux imager where an initial reading using standard UV optics (Ex 340 nm, Em 450 nm) was obtained. The plate was then removed from the reader, incubated for 30 minutes at room temperature, and returned to the reader for a second fluorescence reading. A fully automated robotic screening system (Kalypsys Inc, San diego, CA) was used to perform the above steps as described previously (Michael 2008). […]
Further: nearly all actives have a fitted effect of over 50% in size.
Potency means the concentration at half of the fitted maximal effect; tags describe the fitted curve by direction and shape.
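Wherever activity change, negative = inhibition is given: 0% = wells with enzyme and -100% = buffer wells without enzyme.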

Chain of UniProt B2RXH2 (B2RXH2 whole entry, looked up, the tested form may be a part): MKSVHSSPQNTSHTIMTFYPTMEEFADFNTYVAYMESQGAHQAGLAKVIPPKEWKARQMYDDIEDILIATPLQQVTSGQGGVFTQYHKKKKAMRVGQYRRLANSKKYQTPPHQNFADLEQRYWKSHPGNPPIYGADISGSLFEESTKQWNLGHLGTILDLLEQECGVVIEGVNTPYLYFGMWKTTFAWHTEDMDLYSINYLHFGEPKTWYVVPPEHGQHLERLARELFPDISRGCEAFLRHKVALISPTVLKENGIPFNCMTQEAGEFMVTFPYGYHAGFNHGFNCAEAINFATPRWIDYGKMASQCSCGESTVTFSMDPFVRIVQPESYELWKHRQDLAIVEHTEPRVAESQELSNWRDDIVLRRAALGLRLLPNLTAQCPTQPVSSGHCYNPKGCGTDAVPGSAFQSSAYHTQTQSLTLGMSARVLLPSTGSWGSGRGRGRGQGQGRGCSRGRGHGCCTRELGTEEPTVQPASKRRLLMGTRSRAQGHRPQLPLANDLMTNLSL

| Structure (SMILES) | Potency | activity change, negative = inhibition |
| --- | --- | --- |
| O=S(=O)(O)c1cc(N=C=S)ccc1/C=C/c1ccc(N=C=S)cc1S(=O)(=O)O | inconclusive: 22.4 µM [inhibitor, partial curve] | – |
| CC1(C)CC(CCNCc2ccc3c(c2)OCO3)(Cc2ccccc2)CCO1 (configuration not stated) | inconclusive: 39.8 µM [inhibitor, single point] | – |
| N[C@H](CCCP(=O)(O)O)C(=O)O | inconclusive: 39.8 µM [inhibitor, single point] and inconclusive: 8.91 µM [inhibitor, full curve, poor fit] | – |
| CN1C(=O)C(=Cc2ccc(N3CCOCC3)c([N+](=O)[O-])c2)C(=O)N(C)C1=O | inconclusive: 35.5 µM [inhibitor, single point] | – |
| COC(=O)C1=Nc2ccccc2/C1=C\c1c(O)n(C)c(=O)n(C)c1=O | inconclusive: 28.2 µM [inhibitor, single point] | – |
| COc1cc(/C=C2\C(=O)NC(=O)N(c3ccccc3)C2=O)c([N+](=O)[O-])cc1OC | – | inactive: 65.3% |
| Cc1cc(C)n2c(Br)c(CN3CC4CC(C3)c3cccc(=O)n3C4)nc2n1 (configuration not stated) | inconclusive: 31.6 µM [inhibitor, single point] | – |
| CCCCn1c(=O)c(C(=O)Nc2ccccc2S(N)(=O)=O)c(O)c2ccccc21 | inconclusive: 28.2 µM [inhibitor, single point] | – |
| Cc1[nH]ccc2c1[nH]c1cc(=O)ccc12 | inconclusive: 12.6 µM [inhibitor, partial curve] and inconclusive: 28.2 µM [inhibitor, partial curve] and inconclusive: 35.5 µM [inhibitor, partial curve] | – |
| COc1ccc(OCC#CCN2CCCCCC2)cc1 | inconclusive: 22.4 µM [inhibitor, partial curve, poor fit] | – |
| Cc1cc2ccccc2c(=O)n1CC(=O)NCC(=O)N1CCC2(CC1)OCCO2 | inconclusive: 31.6 µM [inhibitor, partial curve] | – |
| COc1cccc(-c2cc(C(F)(F)F)n3nc(C(=O)N4CCC5(CC4)OCCO5)cc3n2)c1 | – | inactive: -8.93% |
| Oc1c(Cl)cc(Cl)cc1CN1CCN(Cc2ccccc2)CC1 | – | inactive: -18.6% |
| O=C1NC(=O)N(c2ccccc2)C(=O)/C1=C/C=C/c1ccco1 | – | inactive: -12.2% |
| Nc1c(C(=O)OCc2ccccc2)c2nc3ccccc3nc2n1Cc1cccs1 | inconclusive: 28.2 µM [inhibitor, partial curve] | – |
| O=C1NC(=O)N(c2ccccc2)C(=O)/C1=C/c1ccc([N+](=O)[O-])s1 | inconclusive: 28.2 µM [inhibitor, single point] | – |
| C=CCn1c(O)c(C(CC)=Nc2ccc(N(CC)CC)cc2)c(=O)[nH]c1=O | inconclusive: 0.794 µM [inhibitor, full curve, poor fit] | – |
| O=C(Cc1ccccc1)N1CCN(C2CCCC2)CC1 | inconclusive: 25.1 µM [inhibitor, single point] | – |
| COc1ccc(-n2c(C)cc(C(=O)C[N+]34CCN(CC3)CC4)c2C)cc1 | active: 22.4 µM | – |
| CN1C[C@H](C(=O)N[C@]2(C)O[C@]3(O)[C@H]4CCCN4C(=O)[C@H](Cc4ccccc4)N3C2=O)C[C@H]2c3cccc4[nH]cc(c34)C[C@@H]21 | – | inactive: -5.06% [at 25.5 µM] |
| CCOC(=O)c1c(C)n(Cc2ccco2)c2ccc(OC)cc12 | inconclusive: 39.8 µM [inhibitor, single point] | – |

| Structure (SMILES) | Potency | activity change, negative = inhibition |
| --- | --- | --- |
| Cc1c2ccncc2c(C)c2c1[nH]c1ccccc12 | active: 12.6 µM | – |
| CC[C@@]1(O)C(=O)OCc2c1cc1n(c2=O)Cc2cc3c(NC(=O)CN)cccc3nc2-1 | inconclusive: 35.5 µM [inhibitor, single point] | – |
| Fc1ccc2c(c1)nnn2C1CCN(Cc2nnnn2C2CCCCC2)CC1 | inconclusive: 22.4 µM [inhibitor, single point] | – |
| O=c1[nH]c(CN2CC=C(c3ccccc3)CC2)nc2scc(-c3cccs3)c12 | inconclusive: 25.1 µM [inhibitor, single point] | – |
| O=C1NC(=O)C(CCc2ccncc2)(Cc2ccc([N+](=O)[O-])cc2)C(=O)N1 | inconclusive: 28.2 µM [inhibitor, single point] | – |
| O=C1/C(=C\c2ccncc2)N2CCC1CC2 | inconclusive: 39.8 µM [inhibitor, single point] | – |
| O=c1[nH]c(=O)n(C2CCCCC2)c(O)c1/C=C/C=Nc1ccccc1 | – | inactive: -7.26% |
| CCCCCCCCCCCCn1ccc(=N)cc1 | inconclusive: 8.91 µM [inhibitor, single point] | – |
| CCCCCCCCCCCCC/C=C/[C@@H](O)[C@@H](N)COP(=O)([O-])OCC[N+](C)(C)C | – | inactive: 6.16% |
| COc1ccc(-n2c(/C=C3/C(=O)Nc4ccccc43)nc3ccccc3c2=O)cc1 | – | inactive: 3.1% |
| O=C(O)CCn1cc(C=C2C(=O)NC(=S)NC2=O)c(-c2cccc(Cl)c2)n1 | inconclusive: 1 µM [inhibitor, full curve, poor fit] | – |
| CC(=O)N1CCC2(CC1)CC(=O)c1cc(OCC(=O)N3CCC4(CC3)OCCO4)ccc1O2 | inconclusive: 31.6 µM [inhibitor, partial curve] | – |
| Cc1cccc(-n2c(O)c(C)c(=O)[nH]c2=S)c1 | inconclusive: 25.1 µM [inhibitor, single point] | – |
| O=C1NC(=O)C2(Cc3ccccc3N3CCCC32)C(=O)N1c1ccc(Cl)cc1 (configuration not stated) | active: 25.1 µM | – |
| Fc1ccccc1CNC1CN2CCC1CC2 (configuration not stated) | – | inactive: -0.238% |
| CN1CCN(c2ncc(C=O)s2)CC1 | – | inactive: 6.48% |
| CN1CCN(Cc2cc(C(C)(C)C)c(O)c(C(C)(C)C)c2)CC1 | inconclusive: 39.8 µM [inhibitor, single point] | – |
| CCCCC(=O)N/N=C/c1c(O)n(CCCC)c(=S)[nH]c1=O | inconclusive: 31.6 µM [inhibitor, single point] | – |
| O=C1NC(=O)C(=Cc2ccc3c(c2)OCO3)C(=O)N1 | inconclusive: 39.8 µM [inhibitor, single point] | – |
| Nc1ccccc1C(=O)OCC(=O)c1ccc2c(c1)OCCO2 | – | inactive: -21.5% |
| CCCCCCOC(=O)c1ccccc1N | inconclusive: 28.2 µM [inhibitor, partial curve] | – |
